From US20240226057A1, “NEW USE OF MONENSIN” (MAST PHARMA AB, priority 2021, published 2024)

Test system: tracheal segments from house dust mite (HDM) sensitized guinea pigs
Assay: Antigen-induced bronchoconstriction ex vivo (organ bath)

## CC[C@]1([C@H]2O[C@H]([C@@H]3O[C@](O)(CO)[C@@H](C)C[C@H]3C)C[C@H]2C)CC[C@@H]([C@@]2(C)CC[C@@]3(C[C@@H](O)[C@H](C)[C@H]([C@H](C)[C@H](OC)[C@H](C)C(=O)O)O3)O2)O1 [Monensin, 4-[2-[5-ethyl-5-[5-[6-hydroxy-6-(hydroxymethyl)-3,5-dimethyl-oxan-2-yl]-3-methyl-oxolan-2-yl]oxolan-2-yl]-9-hydroxy-2,8-dimethyl-1,6-dioxaspiro[4.5]dec7-yl]-3-methoxy-2-methyl-pentanoic acid]
  Gross lung tissue damage ex vivo: does not cause any gross lung tissue damage
1 μM monensin, 48 hours
  Carbachol-induced contraction, 1 μM: did not affect
10 μM monensin, 48 hours
  Carbachol concentration response curve, 10 μM: decreased
Segments cultured 48 hours with 1 or 10 μM (both concentrations)
  HDM-induced contraction: almost completely abolished
